# Assay results reported in PMC4336329 (PLoS ONE, 2015).
# Screen size: about 310,000 compounds; about 14,000 (4.5%) showed an effect of 50% or more. The effect is printed as a negative number. This is one part of the list.
# Molecular target: human ether-à-go-go-related gene (hERG) potassium channel (human, UniProt Q12809)
# Assay: primary screen, population patch clamp on CHO cells stably expressing hERG
# 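Also: peak tail current of the secondary pulse compared with the same well before compound.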
# Chain of human ether-à-go-go-related gene (hERG) potassium channel (Q12809 whole entry, looked up): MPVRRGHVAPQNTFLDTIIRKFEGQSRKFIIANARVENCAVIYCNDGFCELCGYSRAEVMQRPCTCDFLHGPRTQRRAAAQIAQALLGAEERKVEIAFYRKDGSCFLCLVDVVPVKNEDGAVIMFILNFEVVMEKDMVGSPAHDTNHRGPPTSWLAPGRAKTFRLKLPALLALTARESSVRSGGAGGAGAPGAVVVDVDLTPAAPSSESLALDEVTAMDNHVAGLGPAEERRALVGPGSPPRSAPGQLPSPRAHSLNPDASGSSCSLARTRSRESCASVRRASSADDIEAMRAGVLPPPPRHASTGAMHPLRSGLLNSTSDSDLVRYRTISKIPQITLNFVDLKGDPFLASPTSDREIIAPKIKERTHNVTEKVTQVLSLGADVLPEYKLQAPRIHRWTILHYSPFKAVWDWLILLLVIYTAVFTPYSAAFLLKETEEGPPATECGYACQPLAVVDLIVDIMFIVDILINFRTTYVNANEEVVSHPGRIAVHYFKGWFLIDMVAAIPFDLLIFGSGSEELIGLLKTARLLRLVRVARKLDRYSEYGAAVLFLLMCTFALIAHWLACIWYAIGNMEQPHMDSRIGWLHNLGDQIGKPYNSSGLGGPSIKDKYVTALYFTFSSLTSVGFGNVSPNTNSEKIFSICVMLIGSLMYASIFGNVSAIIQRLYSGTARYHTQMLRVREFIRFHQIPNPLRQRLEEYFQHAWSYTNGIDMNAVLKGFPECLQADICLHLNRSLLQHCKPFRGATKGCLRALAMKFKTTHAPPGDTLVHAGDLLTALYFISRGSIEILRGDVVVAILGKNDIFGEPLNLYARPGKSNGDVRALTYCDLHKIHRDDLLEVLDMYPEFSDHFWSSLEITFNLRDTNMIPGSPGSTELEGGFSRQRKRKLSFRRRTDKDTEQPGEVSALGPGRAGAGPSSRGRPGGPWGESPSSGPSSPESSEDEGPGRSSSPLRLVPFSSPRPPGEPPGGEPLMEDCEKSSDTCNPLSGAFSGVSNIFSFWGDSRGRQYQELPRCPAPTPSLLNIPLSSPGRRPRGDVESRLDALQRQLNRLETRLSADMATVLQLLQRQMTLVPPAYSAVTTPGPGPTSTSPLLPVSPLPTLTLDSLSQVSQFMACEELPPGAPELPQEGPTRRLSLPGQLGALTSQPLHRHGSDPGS
row,Compound,"hERG current change (%, negative = inhibition) at 10uM"
1,COc1ccccc1NC(=O)CN(Cc1ccco1)C(=O)c1cccs1,-4.4%
2,COc1ccc(C(=O)CN2C(=O)NC3(CCCc4ccccc43)C2=O)cc1OC (stereo not shown),-19%
3,O=C(CSCc1ccccc1)Nc1cccc(C(=O)Nc2ccc(C(=O)O)cc2)c1,4.84%
4,CC(C)n1nnnc1-c1cccc(Cl)c1,2.2%
5,Cc1ccc(S(=O)(=O)NCCC(=O)NC2CCCCC2C)cc1 (stereo not shown),3.4%
6,CCCCn1c(=O)c(C(=O)Nc2ccccc2S(N)(=O)=O)c(O)c2ccccc21,-12.3%
7,Cc1cccc(-c2c3c(=O)n(C)c(=O)n(C)c3cn2-c2ccccc2O)c1,1.06%
8,Cc1ccc2c(c1)N(CC(=O)NC1CCCC1)C(=O)C(C)O2 (stereo not shown),-3.85%
9,O=C(Oc1ccc(C(=S)N2CCOCC2)cc1Br)c1cc(Cl)ccc1Cl,14.1%
10,Cc1cccc(NC(=S)N(CCN2CCOCC2)Cc2cc3cc4c(cc3[nH]c2=O)OCCO4)c1,-3.3%
11,O=C(Nc1ccccc1NS(=O)(=O)c1ccc(F)cc1)C1CCCC1,4.36%
12,CCNC(=S)NNc1nc(N2CCCCC2)nc(N2CCOCC2)n1,12.6%
13,COc1cc(NC(=S)N2CCCC2)cc(OC)c1,16.2%
14,CCCCn1c(CCC(=O)O)nc2cc(S(=O)(=O)N(CC)CC)ccc21,4.24%
15,O=C(CSc1n[nH]c(-c2ccccc2Cl)n1)NCc1cccc(C(=O)O)c1,18.2%
16,Cc1cccc(-n2c(SCC(=O)N3CC(=O)Nc4ccccc43)nc3ccccc3c2=O)c1C,-8.02%
17,CC(C(=O)Nc1ccc2c(c1)OCCO2)N1CCN(C(=O)c2ccco2)CC1 (stereo not shown),-4.62%
18,Cc1ccc(C)c(NC2=NS(=O)(=O)c3ccccc32)c1,-3.23%
19,N#Cc1c(N)n(Cc2ccccc2)c(=O)c2cc([N+](=O)[O-])ccc12,9.84%
20,CCCCNC(=O)CSc1nc2ccc(Nc3nc(N4CCOCC4)nc(N4CCOCC4)n3)cc2s1,-6.04%
21,Cc1cc(Cl)ccc1Oc1cccc(C(=O)/C(C#N)=C/N(C)C)c1,-13.9%
22,COc1ccc(C(=O)NC(C(=O)N2CCN(c3ccccc3O)CC2)C(C)C)cc1 (stereo not shown),7.18%
23,Cc1ccc(C(=O)N2CC(=O)Nc3ccc(F)cc3C2c2ccc(F)cc2)cc1 (stereo not shown),-20.4%
24,Cc1cccc(Cc2nnc(CCC(=O)N(C)Cc3ccncc3C)o2)c1,-3.01%
25,CCN(CC)CCCNc1cc(C)nc2cc(-c3cccs3)nn12,-35.3%
26,CCOC(=O)CNC(=O)CSc1nnc(CCc2nc3ccccc3[nH]2)n1C,17.2%
27,CN(C(=O)c1ccc(Br)o1)C1CCS(=O)(=O)C1 (stereo not shown),24.4%
28,O=[N+]([O-])c1ccccc1/C=C/C=N/n1c(-c2cc(-c3ccccc3)n[nH]2)n[nH]c1=S,8.59%

row,Compound,"hERG current change (%, negative = inhibition) at 10uM"
1,CCN1CCN(C(=O)Cn2nc(C)c3sc4ccccc4c3c2=O)CC1,-3.06%
2,COC(=O)C1=C(C)NC(=S)NC1c1ccc(-c2cc(Cl)ccc2Cl)o1 (stereo not shown),-19.2%
3,CC(C)c1ccc(NC2CCCN(C(=O)CCc3cn[nH]c3)C2)cc1 (stereo not shown),0.18%
4,O=C(COc1ccc(Cl)cc1)N(Cc1ccccc1)c1nc(-c2ccccc2)cs1,2.46%
5,Cc1cc(C)n2c(Nc3ccc4c(c3)OCCO4)c(-c3ccccc3)nc2n1,-16.7%
6,O=C1C2CC=CCC2C(=O)N1Cc1nnc(-c2ccccc2Br)o1 (stereo not shown),-4.97%
7,N#CC1=C(N)Oc2n[nH]c(-c3cccnc3)c2C1c1cc(F)ccc1F (stereo not shown),11.2%
8,COc1cc(NC(=S)NCCCO)c(OC)cc1Cl,20.2%
9,Cl.O=C(Nc1ccccc1)N1CCNCC1,14%
10,COc1cccc(Oc2cc(NN3CCCCC3)c([N+](=O)[O-])cc2[N+](=O)[O-])c1OC,7.27%
11,Cc1c(Cc2ccccc2)c(=O)oc2c(C)c(OCC(=O)Nc3ccc(C#N)cc3)ccc12,1.64%
12,COc1ccc(CCNCC(=O)Nc2ccc(C(=O)N3CCCCC3)cc2)cc1.O=C(O)C(=O)O,4.75%
13,CCn1nc(NS(=O)(=O)c2ccccc2)c2cc3cc(C)ccc3nc21,3.38%
14,O=C(COC(=O)c1ccccc1F)Nc1cccnc1Cl,-2.16%
15,COc1cccc(NC(=S)N2CCN(c3ccccn3)CC2)c1,6.36%
16,Cc1nc(-c2ccc(NC(=O)c3cccs3)cc2)cs1,-1.97%
17,O=C(Cn1ccc2cc(S(=O)(=O)N3CCCCC3)ccc21)NCc1ccccc1F,-3.7%
18,COc1ccc(C(=O)Nc2ccc(Cl)cc2F)cc1S(=O)(=O)N1CCCC1,-48.1%
19,CCN(CC)CC(=O)Nc1ccc(-c2nc3cc(NC(=O)CN(CC)CC)ccc3o2)cc1,-18.1%
20,O=C(CN1CCCC1)Nc1ccccc1C(=O)c1ccccc1,-2.59%
21,CCOC(=O)C1=C(C)N(C)C(=O)C1CC(=O)O (stereo not shown),19.4%
22,Cc1ccc(NC(=O)CSc2nnc(NC(=O)C(C)C)s2)c(C)c1,5.81%
23,N#Cc1ccccc1Oc1ccccc1C=O,-16.8%
24,CCC(C)c1ccc(NC(=O)C2=CC=CN3CCS(=O)(=O)N=C23)cc1 (stereo not shown),-9.25%
25,Cc1ccc(/C=N\NC(=O)C2COc3cc4ccccc4cc3O2)o1 (stereo not shown),-5.12%
26,NC1=NC(c2cccc(O)c2)n2c(nc3ccccc32)N1 (stereo not shown),9.75%
27,Cc1noc(C)c1S(=O)(=O)N(C)Cc1ccccc1,20.5%
